According to the supplement of paper PMC8728848:
Some of the results follow.

Tests used:
Assay in all cases: glycan array binding signal (z-score within array); higher = stronger binding
Settings in all cases: glycan notation: IUPAC condensed, linker removed
[1] = target: Neu5Ac(a2-6)Gal(b1-4)Glc
Method in brief: (§1)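 The binding signal is a Z-score computed within each array and averaged over linkers. Arrays of the same protein sequence at different concentrations or buffers were also averaged together. Data originate from 3228 arrays in the Consortium for Functional Glycomics database, kept only where the protein sequence was available.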

[2] = target: Neu5Ac(a2-6)Gal(b1-4)GlcNAc
Method in brief: as §1

[3] = target: Neu5Ac(a2-6)Gal(b1-4)GlcNAc(b1-2)Man(a1-3)Man(b1-4)GlcNAc(b1-4)GlcNAc
Method in brief: as §1

[4] = target: Neu5Ac(a2-6)Gal(b1-4)GlcNAc(b1-2)Man(a1-3)[Gal(b1-4)GlcNAc(b1-2)Man(a1-6)]Man(b1-4)GlcNAc(b1-4)GlcNAc
Method in brief: as §1

[5] = target: Neu5Ac(a2-6)Gal(b1-4)GlcNAc(b1-2)Man(a1-3)[GlcNAc(b1-2)Man(a1-6)]Man(b1-4)GlcNAc(b1-4)GlcNAc
Method in brief: as §1

[6] = target: Neu5Ac(a2-6)Gal(b1-4)GlcNAc(b1-2)Man(a1-3)[GlcNAc(b1-2)Man(b1-4)GlcNAc(b1-2)Man(a1-6)]Man(b1-4)GlcNAc(b1-4)GlcNAc
Method in brief: as §1

[7] = target: Neu5Ac(a2-6)Gal(b1-4)GlcNAc(b1-2)Man(a1-3)[Man(a1-6)]Man(b1-4)GlcNAc(b1-4)GlcNAc
Method in brief: as §1

[8] = target: Neu5Ac(a2-6)Gal(b1-4)GlcNAc(b1-2)Man(a1-3)[Neu5Ac(a2-6)Gal(b1-4)GlcNAc(b1-2)Man(a1-6)]Man(b1-4)GlcNAc(b1-4)GlcNAc
Method in brief: as §1

[9] = target: Neu5Ac(a2-6)Gal(b1-4)GlcNAc(b1-2)Man(a1-6)Man(b1-4)GlcNAc(b1-4)GlcNAc
Method in brief: as §1

[10] = target: Neu5Ac(a2-6)Gal(b1-4)GlcNAc(b1-2)Man(a1-6)[Gal(b1-4)GlcNAc(b1-2)Man(a1-3)]Man(b1-4)GlcNAc(b1-4)GlcNAc
Method in brief: as §1

[11] = target: Neu5Ac(a2-6)Gal(b1-4)GlcNAc(b1-2)Man(a1-6)[GlcNAc(b1-2)Man(a1-3)]Man(b1-4)GlcNAc(b1-4)GlcNAc
Method in brief: as §1

[12] = target: Neu5Ac(a2-6)Gal(b1-4)GlcNAc(b1-2)Man(a1-6)[Man(a1-3)]Man(b1-4)GlcNAc(b1-4)GlcNAc
Method in brief: as §1

[13] = target: Neu5Ac(a2-6)Gal(b1-4)GlcNAc(b1-3)Gal(b1-3)GlcNAc
Method in brief: as §1

[14] = target: Neu5Ac(a2-6)Gal(b1-4)GlcNAc(b1-3)Gal(b1-4)GlcNAc
Method in brief: as §1

[15] = target: Neu5Ac(a2-6)Gal(b1-4)GlcNAc(b1-3)Gal(b1-4)GlcNAc(b1-3)Gal(b1-4)GlcNAc
Method in brief: as §1

[16] = target: Neu5Ac(a2-6)Gal(b1-4)GlcNAc(b1-3)Gal(b1-4)[Fuc(a1-3)]GlcNAc(b1-3)Gal(b1-4)[Fuc(a1-3)]GlcNAc
Method in brief: as §1

[17] = target: Neu5Ac(a2-6)Gal(b1-4)GlcNAc(b1-3)GalNAc
Method in brief: as §1

[18] = target: Neu5Ac(a2-6)Gal(b1-4)GlcNAc6S
Method in brief: as §1

[19] = target: Neu5Ac(a2-6)GalNAc
Method in brief: as §1

[20] = target: Neu5Ac(a2-6)GalNAc(b1-4)GlcNAc
Method in brief: as §1

[21] = target: Neu5Ac(a2-6)GlcNAc(b1-4)GlcNAc
Method in brief: as §1

[22] = target: Neu5Ac(a2-6)GlcNAc(b1-4)GlcNAc(b1-4)GlcNAc
Method in brief: as §1

[23] = target: Neu5Ac(a2-8)Neu5Ac
Method in brief: as §1

[24] = target: Neu5Ac(a2-8)Neu5Ac(a2-3)Gal(b1-4)Glc
Method in brief: as §1

[25] = target: Neu5Ac(a2-8)Neu5Ac(a2-3)[GalNAc(b1-4)]Gal(b1-4)Glc
Method in brief: as §1

[26] = target: Neu5Ac(a2-8)Neu5Ac(a2-8)Neu5Ac
Method in brief: as §1

[27] = target: Neu5Ac(a2-8)Neu5Ac(a2-8)Neu5Ac(a2-3)Gal(b1-4)Glc
Method in brief: as §1

[28] = target: Neu5Ac(a2-8)Neu5Ac(a2-8)Neu5Ac(a2-3)[GalNAc(b1-4)]Gal(b1-4)Glc
Method in brief: as §1

[29] = target: Neu5Ac(a2-8)Neu5Ac(a2-8)Neu5Ac(a2-8)Neu5Ac(a2-3)[GalNAc(b1-4)]Gal(b1-4)Glc
Method in brief: as §1

[30] = target: Neu5Ac(b2-6)Gal(b1-4)GlcNAc
Method in brief: as §1

[31] = target: Neu5Ac(b2-6)GalNAc
Method in brief: as §1

[32] = target: Neu5Ac9Ac(a2-3)Gal(b1-3)GlcNAc
Method in brief: as §1

[33] = target: Neu5Ac9Ac(a2-3)Gal(b1-4)GlcNAc
Method in brief: as §1

[34] = target: Neu5Ac9Ac(a2-6)Gal(b1-4)GlcNAc
Method in brief: as §1

[35] = target: Neu5Gc(a2-3)Gal(b1-3)GlcNAc
Method in brief: as §1

[36] = target: Neu5Gc(a2-3)Gal(b1-3)[Fuc(a1-4)]GlcNAc
Method in brief: as §1

[37] = target: Neu5Gc(a2-3)Gal(b1-4)Glc
Method in brief: as §1

[38] = target: Neu5Gc(a2-3)Gal(b1-4)GlcNAc
Method in brief: as §1

[39] = target: Neu5Gc(a2-3)Gal(b1-4)[Fuc(a1-3)]GlcNAc
Method in brief: as §1

[40] = target: Neu5Gc(a2-6)Gal(b1-4)GlcNAc
Method in brief: as §1

[41] = target: Neu5Gc(a2-6)GalNAc
Method in brief: as §1

[42] = target: Neu5Gc(b2-6)Gal(b1-4)GlcNAc
Method in brief: as §1

B1: Mincle (Homo sapiens), Q9ULY5 (protein)
chain: MNSSKSSETQCTERGCFSSQMFLWTVAGIPILFLSACFITRCVVTFRIFQTCDEKKFQLPENFTELSCYNYGSGSVKNCCPLNWEYFQSSCYFFSTDTISWALSLKNCSAMGAHLVVINSQEEQEFLSYKKPKMREFFIGLSDQVVEGQWQWVDGTPLTKSLSFWDVGEPNNIATLEDCATMRDSSNPRQNWNDVTCFLNYFRICEMVGINPLNKGKSL
- glycan array binding signal (z-score) [1]: -0.181
- glycan array binding signal (z-score) [2]: -0.428
- glycan array binding signal (z-score) [3]: -0.439
- glycan array binding signal (z-score) [4]: 2.2
- glycan array binding signal (z-score) [5]: 1.35
- glycan array binding signal (z-score) [6]: 1.17
- glycan array binding signal (z-score) [7]: -0.08
- glycan array binding signal (z-score) [8]: 1.63
- glycan array binding signal (z-score) [9]: 0.204
- glycan array binding signal (z-score) [10]: 1.83
- glycan array binding signal (z-score) [11]: 1
- glycan array binding signal (z-score) [12]: -0.681
- glycan array binding signal (z-score) [13]: -0.325
- glycan array binding signal (z-score) [14]: -0.189
- glycan array binding signal (z-score) [15]: -0.394
- glycan array binding signal (z-score) [16]: -0.415
- glycan array binding signal (z-score) [17]: 0.372
- glycan array binding signal (z-score) [18]: -0.005
- glycan array binding signal (z-score) [19]: -0.372
- glycan array binding signal (z-score) [20]: -0.184
- glycan array binding signal (z-score) [21]: 1.53
- glycan array binding signal (z-score) [22]: 0.446
- glycan array binding signal (z-score) [23]: -0.088
- glycan array binding signal (z-score) [24]: -0.279
- glycan array binding signal (z-score) [25]: -0.338
- glycan array binding signal (z-score) [26]: -0.054
- glycan array binding signal (z-score) [27]: -0.285
- glycan array binding signal (z-score) [28]: 0.086
- glycan array binding signal (z-score) [29]: -0.374
- glycan array binding signal (z-score) [30]: -0.201
- glycan array binding signal (z-score) [31]: -0.249
- glycan array binding signal (z-score) [32]: -0.271
- glycan array binding signal (z-score) [33]: -0.14
- glycan array binding signal (z-score) [34]: -0.577
- glycan array binding signal (z-score) [35]: -0.396
- glycan array binding signal (z-score) [36]: -0.375
- glycan array binding signal (z-score) [37]: -0.12
- glycan array binding signal (z-score) [38]: -0.239
- glycan array binding signal (z-score) [39]: -0.195
- glycan array binding signal (z-score) [40]: -0.461
- glycan array binding signal (z-score) [41]: -0.498
- glycan array binding signal (z-score) [42]: -0.036
